# Test results taken from the antibiotic and cytotoxicity screens of Wong et al. (2023).
# Some of the results follow.
# Test system: HSkMC (human skeletal muscle cells)
# Experiment: cytotoxicity call (relative viability < 0.9)
# Details: 10 µM
row,SMILES,cytotoxicity call
1,C[C@H]1CN([C@@H](C)CO)C(=O)c2cc(NS(C)(=O)=O)ccc2O[C@H]1CN(C)S(=O)(=O)c1cccs1,inactive
2,C[C@@H]1CCCCO[C@@H](CN(C)Cc2ccccc2)[C@H](C)CN([C@H](C)CO)C(=O)c2cc(NC(=O)NC3CCCCC3)ccc2O1,inactive
3,Cc1ccc(S(=O)(=O)Nc2ccc3c(c2)C(=O)N([C@H](C)CO)C[C@@H](C)[C@H](CN(C)C(=O)Nc2cccc4ccccc24)OCCCC[C@H](C)O3)cc1,inactive
4,N=C(N)SCCN1C(=O)c2ccccc2C1=O,inactive
5,C[C@H]1CN([C@@H](C)CO)C(=O)Cc2cc(NS(=O)(=O)c3ccccc3)ccc2O[C@H]1CN(C)S(=O)(=O)c1ccc(F)cc1,inactive
6,C[C@H](CO)N1C[C@H](C)[C@@H](CN(C)C(=O)Nc2ccccc2)OCCCC[C@H](C)Oc2ccc(NC(=O)CCC(F)(F)F)cc2C1=O,inactive
7,Cc1ccc(S(=O)(=O)Nc2ccc3c(c2)CC(=O)N([C@@H](C)CO)C[C@H](C)[C@@H](CN(C)S(=O)(=O)c2ccc(F)cc2)O3)cc1,inactive
8,Cc1ccc(S(=O)(=O)Nc2ccc3c(c2)C(=O)N([C@H](C)CO)C[C@@H](C)[C@H](CN(C)S(=O)(=O)c2ccc(F)cc2)OCCCC[C@@H](C)O3)cc1,inactive
9,C[C@@H]1CN([C@@H](C)CO)C(=O)c2cc(NS(C)(=O)=O)ccc2O[C@@H]1CN(C)C(=O)Nc1ccc2c(c1)OCO2,inactive
10,C[C@H]1CN([C@@H](C)CO)C(=O)c2cc(NS(=O)(=O)c3cn(C)cn3)ccc2O[C@@H]1CN(C)CC1CC1,inactive
11,C=CCN1C(=O)[C@@]2(O[C@@H](CCO)[C@H]([Si](C)(C)c3ccc(OC)cc3)[C@H]2C)c2cc(N3C(=O)c4cccc5cccc3c45)ccc21,active
12,C[C@H]1CN([C@@H](C)CO)C(=O)Cc2cc(NC(=O)c3ccncc3)ccc2O[C@@H]1CN(C)S(=O)(=O)c1ccccc1,inactive
13,CO[C@H](C(=O)N(C)C[C@@H]1OCc2ccccc2-c2c(n(C)c3ccccc23)C(=O)N([C@H](C)CO)C[C@H]1C)c1ccccc1,inactive
14,C[C@@H]1CN([C@H](C)CO)C(=O)c2cccc(NC(=O)C3CC3)c2O[C@H]1CN(C)C(=O)NC1CCCCC1,inactive
15,C[C@@H]1CN([C@H](C)CO)C(=O)c2cccc(NC(=O)c3ccncc3)c2O[C@H]1CN(C)S(=O)(=O)c1cn(C)cn1,inactive
16,CC(C)NC(=O)N(C)C[C@H]1OCCCC[C@H](C)Oc2ccc(NS(=O)(=O)c3cn(C)cn3)cc2C(=O)N([C@@H](C)CO)C[C@H]1C,inactive
17,COc1ccc(CN(C)C[C@@H]2Oc3ccc(NS(=O)(=O)c4c(C)noc4C)cc3C(=O)N([C@H](C)CO)C[C@H]2C)cc1,inactive
18,CNC(=O)C[C@H]1CC[C@@H]2[C@H](COC[C@@H](O)CN2C(=O)c2ccc3c(c2)OCO3)O1,inactive
19,O=C(C[C@@H]1C=C[C@H](NC(=O)C2CC2)[C@H](CO)O1)NCCCN1CCOCC1,inactive
20,Cc1noc(C)c1NC(=O)Nc1ccc2c(c1)C(=O)N([C@H](C)CO)C[C@@H](C)[C@@H](CN(C)S(=O)(=O)c1ccccc1)OCCCC[C@H](C)O2,inactive

row,SMILES,cytotoxicity call
1,COc1ccc(CN(C)C[C@H]2Oc3c(NC(=O)CCCCCC(=O)Nc4ccccc4N)cccc3C(=O)N([C@@H](C)CO)C[C@@H]2C)cc1,inactive
2,C[C@@H]1CN([C@H](C)CO)S(=O)(=O)c2ccc(C#CC3(O)CCCC3)cc2O[C@H]1CN(C)C(=O)c1ccccc1,inactive
3,C[C@H]1CN([C@@H](C)CO)C(=O)c2cccc(NC(=O)Nc3ccccc3)c2O[C@@H]1CN(C)Cc1ccc(C(=O)Nc2ccccc2N)cc1,inactive
4,C[C@H]1CN([C@@H](C)CO)C(=O)c2cc(NC(=O)Cn3cnnn3)ccc2O[C@@H]1CN(C)Cc1ccc2c(c1)OCO2,inactive
5,O=C(C[C@H]1CC[C@H](NC(=O)CN2CCOCC2)[C@H](CO)O1)NCc1cccc(F)c1,inactive
6,C[C@@H]1CN([C@H](C)CO)C(=O)c2cc(NC(=O)CCC(F)(F)F)ccc2O[C@@H](C)CCCCO[C@@H]1CN(C)Cc1ccc(C(=O)O)cc1,inactive
7,C[C@H]1CN([C@@H](C)CO)C(=O)Cc2cc(NC(=O)Nc3ccc4c(c3)OCO4)ccc2O[C@H]1CN(C)Cc1ccc(-c2ccccc2)cc1,inactive
8,CN1CCN(C(=O)C[C@H]2CC[C@@H](NC(=O)Cc3ccccn3)[C@@H](CO)O2)CC1,inactive
9,C[C@@H]1CN([C@H](C)CO)C(=O)c2cc(NC(=O)Nc3ccc(F)cc3)ccc2O[C@@H]1CN(C)S(=O)(=O)c1cn(C)cn1,inactive
10,C[C@H](CO)N1C[C@H](C)[C@@H](CN(C)Cc2ccc(Oc3ccccc3)cc2)Oc2ccc(NC(=O)NC3CCCCC3)cc2CC1=O,inactive
11,Cc1ccc(S(=O)(=O)N[C@@H](Cc2ccccc2)C(=O)NCCCn2cc(-c3ccccc3N)nn2)cc1,inactive
12,Cc1noc(C)c1NC(=O)Nc1ccc2c(c1)C(=O)N([C@@H](C)CO)C[C@H](C)[C@H](CN(C)Cc1ccc3c(c1)OCO3)OCCCC[C@@H](C)O2,inactive
13,Cn1ncc2c(N3CCCC3)ncnc21,inactive
14,Cc1ccc(S(=O)(=O)Nc2ccc3c(c2)C(=O)N([C@H](C)CO)C[C@H](C)[C@@H](CN(C)C(=O)CCC(F)(F)F)OCCCC[C@H](C)O3)cc1,inactive
15,C[C@H]1CCCCO[C@H](CN(C)C(=O)Nc2ccc(C(F)(F)F)cc2)[C@@H](C)CN([C@@H](C)CO)C(=O)c2cc(NC(=O)Nc3ccc(F)cc3)ccc2O1,inactive
16,C[C@H](CO)N1C[C@H](C)[C@H](CN(C)Cc2ccc(Oc3ccccc3)cc2)Oc2ccc(NC(=O)CCC(F)(F)F)cc2CC1=O,inactive
17,CO[C@@H](CN(C)S(=O)(=O)c1cccc(Cl)c1)[C@H](C)CN([C@H](C)CO)S(=O)(=O)c1ccc(Cl)cc1,inactive
18,O=C(NC1CC1)[C@@H]1c2ccccc2C(=O)N(Cc2cc(F)cc(C(F)(F)F)c2)[C@H]1c1ccc(CO)cc1,inactive
19,Cc1ccc(S(=O)(=O)Nc2ccc3c(c2)C(=O)N([C@H](C)CO)C[C@@H](C)[C@H](CN(C)Cc2ccc(Oc4ccccc4)cc2)O3)cc1,active
20,COCCNC(=O)C[C@@H]1C[C@H]2c3cc(NC(=O)Nc4ccc(C(F)(F)F)cc4)ccc3O[C@H]2[C@H](CO)O1,inactive
